From the supplement of paper PMC3334620
Over roughly 33,000 sequences, “E-score (-0.5 to 0.5)” has its median near -0.01; the highest 2% begin near 0.26. Some of the results follow.

The sequences below were run against Ste12 (UniProt P13574) (assay: PBM E-score (8-mer binding enrichment) (E-score (-0.5 to 0.5)); higher = stronger / more preferred TF binding; most listed sequences are background and not binding sites). Settings: protein concentration: 200 nM; construct: GST-DNA-binding domain.
In short: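 Masliner-normalised scans of fluorescent anti-GST signal were the basis for scoring. That signal came from GST-tagged yeast transcription factors applied at about 100-200 nM to double-stranded universal all-10-mer Agilent arrays on fresh or once-stripped slides. Each ungapped eight-base word, pooled with its reverse complement, received an E-score from the Universal PBM Analysis Suite.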
CCAGGACG was tested, and the “PBM E-score” value was -0.0827. With GCAGGTCC the “PBM E-score” value was -0.0337. CCACGAAC was tested, and the “PBM E-score” value was 0.148. ACATGACG was tested, and the “PBM E-score” value was 0.0117. For ATTGTAAC, the “PBM E-score” value was 0.216. CAGGACCC was tested, and the “PBM E-score” value was -0.155. CGCAGTGA was tested, and the “PBM E-score” value was 0.0576. GTAGATAC was tested, and the “PBM E-score” value was -0.00886. CACCACTA was tested, and the “PBM E-score” value was 0.0375. For CGCAATGC, the “PBM E-score” value was -0.0676. With ACCACAGT the “PBM E-score” value was -0.0395. With ATGTTATG the “PBM E-score” value was 0.103. TCAAAGGA was tested, and the “PBM E-score” value was 0.0313. With AAGACGGC the “PBM E-score” value was -0.255. GAGTGCAA was tested, and the “PBM E-score” value was 0.147. GAATCTAC was tested, and the “PBM E-score” value was 0.0983. In the case of CTTAGTTC, the “PBM E-score” value is reported as -0.0322. For ACCGTTCT, the “PBM E-score” value was -0.0398. In the case of CCCGTCGC, the “PBM E-score” value is reported as -0.0127. In the case of AAACACCC, the “PBM E-score” value is reported as 0.223. For ACGGAATA, the “PBM E-score” value was 0.0471. With ACGCCGGA the “PBM E-score” value was 0.033. GTACGATA was tested, and the “PBM E-score” value was 0.0244. AACGTTTA was tested, and the “PBM E-score” value was 0.00807. With GCCACTCC the “PBM E-score” value was -0.0101. In the case of ATTCACAG, the “PBM E-score” value is reported as 0.108. For ATGAGAGG, the “PBM E-score” value was -0.0785. AGCCCGTA was tested, and the “PBM E-score” value was -0.159. With ACGAAGAA the “PBM E-score” value was 0.0942. With AGAGCTTG the “PBM E-score” value was 0.0151. In the case of AAATCCAC, the “PBM E-score” value is reported as -0.0239. GTTGCACA was tested, and the “PBM E-score” value was -0.154. With CCAACTGA the “PBM E-score” value was -0.0284. CGTCATAA was tested, and the “PBM E-score” value was 0.143. For AAACATGT, the “PBM E-score” value was 0.301. In the case of CCCCAAGG, the “PBM E-score” value is reported as -0.139. CTGCTTCA was tested, and the “PBM E-score” value was -0.099. CAAAATTA was tested, and the “PBM E-score” value was 0.247. In the case of CGAATGAA, the “PBM E-score” value is reported as 0.084. CTTTTGCC was tested, and the “PBM E-score” value was 0.035. GGACAGCA was tested, and the “PBM E-score” value was -0.198. With ATTTCCTG the “PBM E-score” value was 0.124. In the case of GAGACCCC, the “PBM E-score” value is reported as -0.00992. In the case of CCAAGTAG, the “PBM E-score” value is reported as -0.111. CCTGGTCG was tested, and the “PBM E-score” value was -0.228. In the case of CGAGATTC, the “PBM E-score” value is reported as -0.0528. For CTGGCTGC, the “PBM E-score” value was -0.11. In the case of CGTCCCTA, the “PBM E-score” value is reported as -0.127. CATGATAC was tested, and the “PBM E-score” value was 0.242. With ATTTTTTC the “PBM E-score” value was 0.252. In the case of ATATACTG, the “PBM E-score” value is reported as 0.0976. For AGGCAAGC, the “PBM E-score” value was -0.0733. In the case of CCCGTCGA, the “PBM E-score” value is reported as 0.0198. GATAAAAA was tested, and the “PBM E-score” value was 0.277. AAAGTGTC was tested, and the “PBM E-score” value was -0.105. ACTATGGA was tested, and the “PBM E-score” value was -0.0706. For AATTTTGA, the “PBM E-score” value was 0.145. GATCAGTA was tested, and the “PBM E-score” value was -0.144. CCAAGGAA was tested, and the “PBM E-score” value was -0.12. In the case of AGACTTTG, the “PBM E-score” value is reported as -0.156. In the case of AGGGGGGG, the “PBM E-score” value is reported as -0.276. With ACTGCTAG the “PBM E-score” value was -0.23. CTCGTGTA was tested, and the “PBM E-score” value was 0.0556. With GCGATCGC the “PBM E-score” value was 0.209. In the case of GGAGGTAA, the “PBM E-score” value is reported as 0.0954. For ATGTGTAG, the “PBM E-score” value was 0.0503. With ACCTCATA the “PBM E-score” value was -0.0725. In the case of AGAGCTCA, the “PBM E-score” value is reported as -0.194. For CTCATAAA, the “PBM E-score” value was -0.00236. With ATACCTGA the “PBM E-score” value was 0.0692. CCTAGACA was tested, and the “PBM E-score” value was -0.279. With CGATTTGC the “PBM E-score” value was 0.0114. For ATCTAGAG, the “PBM E-score” value was -0.128. For ATCTATGA, the “PBM E-score” value was 0.107. With AGGCCCCG the “PBM E-score” value was -0.19. In the case of AGTGCAAT, the “PBM E-score” value is reported as 0.0425. For CCTCGCGC, the “PBM E-score” value was -0.0844. CGAAACTA was tested, and the “PBM E-score” value was 0.091. GGTCATGA was tested, and the “PBM E-score” value was -0.0542. In the case of CAGGTGAC, the “PBM E-score” value is reported as -0.0206. With CGGTCCTC the “PBM E-score” value was -0.0996. For CCGGCGCA, the “PBM E-score” value was 0.0234. In the case of CAAGACAC, the “PBM E-score” value is reported as 0.0922. For CGTACTCA, the “PBM E-score” value was -0.00582. With CGCGACGC the “PBM E-score” value was 0.115. With TCAAGCGA the “PBM E-score” value was 0.156. With ATTGGTCG the “PBM E-score” value was -0.124. With GGGACAGA the “PBM E-score” value was -0.0252. For GATTACAA, the “PBM E-score” value was 0.025. In the case of CCCCCCAG, the “PBM E-score” value is reported as -0.309. For CGCTGTGA, the “PBM E-score” value was -0.0234. In the case of AGCCGGTA, the “PBM E-score” value is reported as -0.0538. For ACAATGAA, the “PBM E-score” value was 0.145. In the case of GGCTTGAC, the “PBM E-score” value is reported as -0.188. With AAACGATA the “PBM E-score” value was 0.279. For ATTTTAGG, the “PBM E-score” value was 0.198. With ATGGGAAG the “PBM E-score” value was -0.0232. For AACTTGTG, the “PBM E-score” value was 0.168. AGAATCTA was tested, and the “PBM E-score” value was 0.00504. For CGTCCAAA, the “PBM E-score” value was 0.22. For ATTAATTG, the “PBM E-score” value was 0.237. In the case of ACGTTCCC, the “PBM E-score” value is reported as -0.37. For CCAATAGC, the “PBM E-score” value was -0.207. With CTGGACAG the “PBM E-score” value was -0.143. CACACCTC was tested, and the “PBM E-score” value was 0.0822. In the case of AATGAGGA, the “PBM E-score” value is reported as -0.073. ACAGCATC was tested, and the “PBM E-score” value was -0.0671. With ATATGTTA the “PBM E-score” value was -0.0206. TACCCTGA was tested, and the “PBM E-score” value was -0.148. CTGACGAC was tested, and the “PBM E-score” value was -0.219. CTTGCAAG was tested, and the “PBM E-score” value was 0.225. In the case of ATAGCGTA, the “PBM E-score” value is reported as 0.0271. For AGACGCGA, the “PBM E-score” value was -0.0188. CTTGCGTA was tested, and the “PBM E-score” value was -0.214. ACATCCCG was tested, and the “PBM E-score” value was 0.0117. With AAACACAA the “PBM E-score” value was 0.291. For ACACGCCG, the “PBM E-score” value was 0.132. In the case of GTGCCCGA, the “PBM E-score” value is reported as -0.158. With AAGTACTG the “PBM E-score” value was -0.151. In the case of AGCAAGAC, the “PBM E-score” value is reported as 0.0279. ACTTGTCA was tested, and the “PBM E-score” value was -0.0229. In the case of CGGAGGAC, the “PBM E-score” value is reported as -0.0846. For AACGGGTA, the “PBM E-score” value was 0.161. With AAAAGTAG the “PBM E-score” value was 0.134. CACCGACA was tested, and the “PBM E-score” value was -0.0645. For AGAGTGAG, the “PBM E-score” value was -0.00606. CTGCCACA was tested, and the “PBM E-score” value was -0.0728. CGCAAATC was tested, and the “PBM E-score” value was 0.152. In the case of AAGCCTGT, the “PBM E-score” value is reported as -0.0204. With CGACTGTC the “PBM E-score” value was -0.0965. In the case of CGCCGCAC, the “PBM E-score” value is reported as -1e-05. In the case of CGCGCCCG, the “PBM E-score” value is reported as -0.0271. For ACGCTCAA, the “PBM E-score” value was 0.0259. In the case of AGCACAAG, the “PBM E-score” value is reported as -0.0936. For AATTTCCC, the “PBM E-score” value was -4e-05. With AGACCGGA the “PBM E-score” value was 0.0341. For ATCCCCTA, the “PBM E-score” value was -0.0687. With AACCGGTC the “PBM E-score” value was 0.0268. In the case of CTTGAAAA, the “PBM E-score” value is reported as 0.157. With AGATCCGA the “PBM E-score” value was 0.109. In the case of CGAGAGCA, the “PBM E-score” value is reported as 0.00901. ATTTCCGC was tested, and the “PBM E-score” value was 0.139. With CAGGCTAA the “PBM E-score” value was -0.123. For CGAAAACA, the “PBM E-score” value was 0.0416. In the case of GTTACCTA, the “PBM E-score” value is reported as -0.134. In the case of CATTAGCC, the “PBM E-score” value is reported as -0.101. With AGCCGACC the “PBM E-score” value was -0.188. For CCACTGAA, the “PBM E-score” value was 0.0609. With TCACCAAA the “PBM E-score” value was 0.177. For CTTTTAGC, the “PBM E-score” value was 0.0612. For CGTTGAAA, the “PBM E-score” value was 0.185. ACGAGATG was tested, and the “PBM E-score” value was -0.023. In the case of ATGCGATG, the “PBM E-score” value is reported as 0.00552. For GCGTAAAA, the “PBM E-score” value was 0.163. For GCTCTCTA, the “PBM E-score” value was -0.256. In the case of CTGGCCAG, the “PBM E-score” value is reported as -0.0692. For GGATGATA, the “PBM E-score” value was 0.0634. For AACTCTAA, the “PBM E-score” value was 0.0259. For CTCTAAAC, the “PBM E-score” value was 0.0484. GCGAGCAA was tested, and the “PBM E-score” value was -0.0697. With CACTGAGA the “PBM E-score” value was -0.104. AAATGAGA was tested, and the “PBM E-score” value was 0.0747. For ACACATTC, the “PBM E-score” value was 0.0383. With AAGTCATG the “PBM E-score” value was 0.0671. For CGGCAGAG, the “PBM E-score” value was -0.124. For AATCGTTG, the “PBM E-score” value was -0.0757. For CCGCAACC, the “PBM E-score” value was -0.0389. For AGAGGGAA, the “PBM E-score” value was -0.21. In the case of TGCATACA, the “PBM E-score” value is reported as -0.139. With CGGTACTA the “PBM E-score” value was -0.0556. In the case of GTAGTCTA, the “PBM E-score” value is reported as -0.168. For CTACTAAG, the “PBM E-score” value was -0.0685.
